Test results as given in PMC4336329 (PLoS ONE, 2015).
Screen size: about 310,000 compounds; about 2,200 (0.71%) showed an effect of 50% or more. The effect is printed as a negative number. This is one part of the list.

What follows are compounds tested against human ether-à-go-go-related gene (hERG) potassium channel (human, UniProt Q12809) (assay: primary screen, population patch clamp on CHO cells stably expressing hERG).
Sequence of human ether-à-go-go-related gene (hERG) potassium channel (Q12809 whole entry, looked up): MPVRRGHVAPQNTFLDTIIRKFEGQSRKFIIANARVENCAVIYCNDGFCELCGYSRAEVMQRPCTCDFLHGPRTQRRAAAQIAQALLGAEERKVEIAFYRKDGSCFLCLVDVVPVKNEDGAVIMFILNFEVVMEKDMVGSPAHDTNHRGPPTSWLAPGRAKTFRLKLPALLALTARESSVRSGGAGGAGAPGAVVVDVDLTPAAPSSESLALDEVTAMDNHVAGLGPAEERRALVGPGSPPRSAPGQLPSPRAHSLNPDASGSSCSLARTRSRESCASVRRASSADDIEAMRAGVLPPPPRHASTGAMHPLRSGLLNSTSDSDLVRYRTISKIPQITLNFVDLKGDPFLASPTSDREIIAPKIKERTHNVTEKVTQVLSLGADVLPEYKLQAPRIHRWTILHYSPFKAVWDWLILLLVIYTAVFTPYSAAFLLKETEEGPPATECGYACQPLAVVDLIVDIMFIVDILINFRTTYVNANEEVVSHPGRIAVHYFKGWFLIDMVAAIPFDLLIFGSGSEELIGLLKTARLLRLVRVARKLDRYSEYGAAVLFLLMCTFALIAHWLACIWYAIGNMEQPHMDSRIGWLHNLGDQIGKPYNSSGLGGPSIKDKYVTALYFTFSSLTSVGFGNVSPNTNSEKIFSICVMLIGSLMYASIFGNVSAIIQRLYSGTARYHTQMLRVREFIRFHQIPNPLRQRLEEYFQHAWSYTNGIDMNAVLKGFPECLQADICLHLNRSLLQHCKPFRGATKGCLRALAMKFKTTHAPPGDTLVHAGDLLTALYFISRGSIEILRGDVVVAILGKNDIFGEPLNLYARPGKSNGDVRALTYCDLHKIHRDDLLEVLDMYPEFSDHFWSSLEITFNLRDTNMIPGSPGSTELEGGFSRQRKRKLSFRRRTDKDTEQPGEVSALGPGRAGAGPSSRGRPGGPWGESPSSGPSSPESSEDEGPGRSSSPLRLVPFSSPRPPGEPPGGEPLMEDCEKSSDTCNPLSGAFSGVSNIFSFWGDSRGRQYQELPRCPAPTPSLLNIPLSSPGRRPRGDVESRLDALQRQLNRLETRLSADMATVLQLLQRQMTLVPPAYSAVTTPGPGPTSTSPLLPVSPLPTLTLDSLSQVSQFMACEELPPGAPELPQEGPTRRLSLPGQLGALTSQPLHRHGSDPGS

| SMILES | hERG current change (%, negative = inhibition) at 1uM [%] |
| --- | --- |
| COc1cc(C2C(C(C)=O)=C(O)C(=O)N2c2ccc(C)cc2)ccc1O (stereo not drawn) | 17.1 |
| CC1CC(C)CN(S(=O)(=O)c2cccc3nonc23)C1 (stereo not drawn) | 9.47 |
| COc1ccc(N2CCN(C(=S)Nc3ccc(F)cc3)CC2)cc1 | 18.4 |
| CC1CCC(=O)N(CCOc2ccccc2)CC1 (stereo not drawn) | -1.81 |
| CCOC(=O)c1nnn(-c2nonc2N)c1CN(C)Cc1ccccc1 | 9.78 |
| CCOc1ccc2oc(C(=O)N3CCN(c4ccccn4)CC3)c(C)c2c1 | 15.3 |
| O=C(NC1CCCC1)c1ccc(Cl)c(S(=O)(=O)N2CCOCC2)c1 | 1.58 |
| CCCCn1c(SCc2cccnc2)nc2c1c(=O)n(C)c(=O)n2C | -2 |
| COc1ccc(C(C)(C)C)cc1NC(=O)COC(=O)C1=NNC(=O)CC1 | 3.3 |
| O=C(CSc1nnnn1-c1ccc(F)cc1)Nc1ccccc1F | 11 |
| C/C(=N\N=C1\NC(=O)C(CC(=O)Nc2ccccc2F)S1)C1CCCCC1 (stereo not drawn) | -0.148 |
| CC(C)NC(=O)NC(=O)CSc1nncn1C | 1.66 |
| Nn1c(SCC(=O)NC(=O)Nc2ccc3c(c2)OCCO3)nnc1C1CC1 | 13.8 |
| O=C(Nc1ccc2oc(-c3ccncc3)nc2c1)c1ccc(F)cc1 | -1.1 |
| Cc1ccc(O)c(-c2cc(C(=O)Nc3ccc(S(=O)(=O)Nc4nccc(C)n4)cc3)[nH]n2)c1 | 6.89 |
| CCC(C)NS(=O)(=O)c1ccc(OCC(=O)N2CCCCC2)cc1 (stereo not drawn) | 7.55 |
| CN1CCN(c2ccc(F)cc2N)CC1 | 17 |
| C=CCn1c(SCc2ccc(C(=O)Nc3ccccc3)cc2)nnc1-c1ccccc1 | -2.11 |
| CCCN1C(=O)c2ccccc2NC1c1ccc(Cl)c(Cl)c1 (stereo not drawn) | 10.7 |
| CC(NC(=O)Nc1cccnc1)(C(F)(F)F)C(F)(F)F | 1.35 |
| CC(=O)Nc1ccc(S(=O)(=O)N2CCN(CCC#N)CC2)cc1 | 12.7 |
| CCn1cc(/C=C(\NC(=O)c2ccc(OC)c(OC)c2)C(=O)N2CCN(C)CC2)c2ccccc21 | 3.89 |
| COc1ccc(CCNC(=O)Cn2nnc(C(=O)Nc3cccc(C)c3C)c2N)cc1OC | 12.2 |

| SMILES | hERG current change (%, negative = inhibition) at 1uM [%] |
| --- | --- |
| Clc1cccc(CNCCNCc2cccc(Cl)c2)c1 | -5.35 |
| Nc1nccnc1C(=O)OCC(=O)Nc1cccc(S(=O)(=O)N2CCCCC2)c1 | 0.171 |
| O=C(c1ccc([N+](=O)[O-])cc1)N1CCN(c2cccc3[nH]ccc23)CC1 | -29.9 |
| O=C(c1ccco1)N1CCN=C1SCc1c(F)cccc1Cl | 6.94 |
| Fc1cccc(NC(=S)NCc2cccnc2)c1 | 21.2 |
| COc1ccccc1C(=O)Nc1c(C(=O)N2CCN(C)CC2)oc2ccccc12 | 9.81 |
| COc1ccccc1CN1CCNC(=O)C1CC(=O)N(C)CC1CCOCC1 (stereo not drawn) | 16.6 |
| CN(C)c1ccc(Sc2nnc(NC(=O)Nc3ccc(Cl)cc3Cl)s2)cc1 | 13.7 |
| C/C(=N\N=C\c1ccc(N(C)C)cc1)c1cccc([N+](=O)[O-])c1 | 10.7 |
| COc1ccccc1-n1c(CNCC2CCCO2)nc2ccccc2c1=O (stereo not drawn) | 1.27 |
| COc1ccccc1N(C)S(=O)(=O)c1ccc(C(=O)N(C)Cc2ccc(Cl)s2)cc1 | 6.69 |
| COc1ccc(Cl)cc1NS(=O)(=O)c1ccc(S(=O)(=O)N2CCCC2)cc1 | -7.39 |
| C[C@@H](O)c1nc2ccccc2n1N | 13.2 |
| CCCC(=O)Nc1cc(C)cn(Cc2c(F)cccc2Cl)c1=O | 8.22 |
| CCCCc1cc(=O)oc2cc(C)cc(OCC(=O)N3CCC(C(=O)O)CC3)c12 | 10.9 |
| O=[N+]([O-])c1cc(C(F)(F)F)cc([N+](=O)[O-])c1NCCN1CCNCC1 | 8.98 |
| Cc1csc(NC(=O)C2=COCCO2)n1 | 9.22 |
| CC(=O)c1nc(-c2ccccc2)sc1C | 13.1 |
| Cc1c(C(=O)Cc2ccccc2)n(C)c2ccccc12 | 13.1 |
| O=C(Nc1ccc(Cl)cc1F)C1CC1c1ccccc1 (stereo not drawn) | 15.7 |
| CC(=O)Nc1ccc(NS(=O)(=O)c2cc([N+](=O)[O-])ccc2C)cc1 | 7.46 |
| O=C(Nc1ccc(-c2nnco2)cc1)c1ccccc1 | 14.8 |
| Cc1ccc(NCc2ccccc2OCc2ccccc2F)cc1 | 14.7 |

| SMILES | hERG current change (%, negative = inhibition) at 1uM [%] |
| --- | --- |
| CCCCc1cc(=O)oc2cc(OCC(=O)Nc3cccnc3)c(Cl)cc12 | 21.3 |
| Cc1ccc2[nH]c(-c3cccc(N)c3)cc2c1 | 16.3 |
| O=C(Nc1ccc(-c2cn3ccccc3n2)cc1)c1cccs1 | 4.17 |
| CCOc1cc(/C=N/NC(=O)c2ccccn2)ccc1OC(=O)c1cccs1 | 9.19 |
| COCCN(C(=O)CCC(=O)Nc1nccs1)C(C(=O)NCCC(C)C)c1ccc(OC)cc1 (stereo not drawn) | 15.2 |
| Fc1ccc(-c2cc(C(F)(F)F)nc(-n3cc(Cl)cn3)n2)cc1 | 2.75 |
| O=C1c2oc3ccccc3c(=O)c2C(c2ccccn2)N1Cc1ccccc1 (stereo not drawn) | 8.83 |
| COc1cc(NC(=O)CSc2nc3[nH]c(=O)cc(O)c3s2)cc(OC)c1OC | 14.1 |
| C[C@@H](Nc1nc(-c2ccccc2)nc2c1oc1ccccc12)C(=O)O | 16.5 |
| CC(C)(C)NC(=O)C(c1ccccc1)N(Cc1cccs1)C(=O)c1csnn1 (stereo not drawn) | 9.67 |
| COc1ccc(Br)cc1S(=O)(=O)N1CCCc2ccccc21 | 9.51 |
| CCN1CCCC1CNC(=O)C(=O)NCc1ccccc1 (stereo not drawn) | 3.56 |
| CCn1cc(S(=O)(=O)CC(=O)Nc2ccc(OC)cc2)c2ccccc21 | 9.04 |
| CCOC(=O)c1c(N)n[nH]c1-c1ccc(OC)cc1 | -6.25 |
| CC(NC(=O)c1cccnc1)c1ccc2c(c1)OCO2 (stereo not drawn) | -2.02 |
| COc1cc(OC)cc(C(=O)OCC(=O)Nc2sccc2C(N)=O)c1 | 5.65 |
| COc1ccc(C2(c3ccc(OC)cc3)NC(=O)N(CC(=O)Nc3ccc(C(=O)N(C)C)cc3)C2=O)cc1 | 3.26 |
| COc1ccc(-c2c(C#N)c(N)nc3c2CCCCCC3)cc1OC | 13.6 |
| Cc1nc(N)[nH]c(=O)c1CC(=O)OCCCl | 8.61 |
| Cc1csc(SC(C)c2nc3scc(-c4ccccc4)c3c(=O)[nH]2)n1 (stereo not drawn) | 7.31 |
| CCCCCc1nc2c(c3c1CCCC3)CCCC2 | -51.7 |
| O=C(COC(=O)C1CCN(S(=O)(=O)c2ccc3c(c2)OCCO3)CC1)NC1CCCCC1 | 1.18 |
| Nc1c(Cl)cc(NC(=O)c2ccccc2C(=O)O)cc1Br | 8.33 |

| SMILES | hERG current change (%, negative = inhibition) at 1uM [%] |
| --- | --- |
| O=c1[nH][nH]c2nc(C(F)(F)F)cc(C(F)(F)F)c12 | 5.11 |
| CSc1nc(NS(=O)(=O)c2cc(Br)ccc2Br)cc(=O)[nH]1 | 13.1 |
| COc1ccc(C2SCC(=O)N2c2c(C)n(C)n(-c3ccccc3)c2=O)c(OC)c1 (stereo not drawn) | 4.43 |
| CN(C)S(=O)(=O)c1cccc(NC(=O)c2cc(-c3cccs3)nn2-c2cccc(Cl)c2)c1 | 15.5 |
| CCOC(=O)COc1ccc(C(=O)Nc2cccc(Cl)c2C)cc1 | 11.7 |
| CCC(=O)Nc1cc(-c2nn3c(C)nnc3s2)ccc1C | 4.77 |
| CCOC(=O)N1CCN(C(=O)C2CCN(S(=O)(=O)c3cc(Cl)ccc3Cl)CC2)CC1 | -10.6 |
| CNC(=O)NC(=O)COC(=O)c1ccc(-n2c(C)ccc2C)cc1 | 7.3 |
| O=C(c1cc(C2CC2)nn1-c1ccccc1)N1CCN(c2ncc(C(F)(F)F)cc2Cl)CC1 | 1.64 |
| CCOc1ccc(CCNC(=O)COC(=O)c2cccc(S(=O)(=O)N3CCCC3)c2)cc1OCC | -6.27 |
| CCCn1ncc(C(=O)O)c1C | 2.04 |
| COC(=O)C1=C2SC(C)C(=O)N2C(N)=C(C#N)C1c1cc(OC)c(OC)c(OC)c1 (stereo not drawn) | -7.86 |
| CC(C)=CCc1c(O)cc2c(=O)c3ccc(O)cc3oc2c1O | 0.617 |
| CC(C)Cn1nc(NS(=O)(=O)c2ccccc2)c2cc3ccccc3nc21 | 6.86 |
| Cc1ccc(NC2c3ncccc3C(=O)N2Cc2ccco2)c(C)c1 (stereo not drawn) | 13.6 |
| CCC(C)c1ccc(O)c(NC(=O)c2cccnc2)c1 (stereo not drawn) | 7.46 |
| CCc1cccc(CC)c1NC(=O)CN1CCc2cc(OC)c(OC)cc2C1 | 10.5 |
| Cc1sc2c(=O)n3c(nc2c1C(=O)NC1CCCCC1)CCCCC3 | 9.42 |
| COc1cccc(NC(=O)CN(C)C(=O)c2cccnc2Sc2ccc(C)c(C)c2)c1 | 21 |
| O=C(c1ccccc1O)N1N=C(c2ccccc2)CC1(O)C(F)(F)F (stereo not drawn) | 1.54 |
| Cc1nnc(SCC(=O)Nc2sc3c(c2C(N)=O)CCC(C)C3)[nH]c1=O (stereo not drawn) | 10.6 |
